About 14,000 (4.5%) of roughly 310,000 compounds showed an effect of 50% or more. Effects have a minus sign here. The list shows a part of the results. Where a SMILES comes first, the peptide text is derived from it. The star is where a group is joined. Boc = CC(C)(C)OC(=O)*
What follows are molecules tested against human ether-à-go-go-related gene (hERG) potassium channel (human, UniProt Q12809) (assay: primary screen, population patch clamp on CHO cells stably expressing hERG).
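Note: peak tail current of the secondary pulse compared with the same well before compound.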

human ether-à-go-go-related gene (hERG) potassium channel, sequence (Q12809 whole entry, looked up): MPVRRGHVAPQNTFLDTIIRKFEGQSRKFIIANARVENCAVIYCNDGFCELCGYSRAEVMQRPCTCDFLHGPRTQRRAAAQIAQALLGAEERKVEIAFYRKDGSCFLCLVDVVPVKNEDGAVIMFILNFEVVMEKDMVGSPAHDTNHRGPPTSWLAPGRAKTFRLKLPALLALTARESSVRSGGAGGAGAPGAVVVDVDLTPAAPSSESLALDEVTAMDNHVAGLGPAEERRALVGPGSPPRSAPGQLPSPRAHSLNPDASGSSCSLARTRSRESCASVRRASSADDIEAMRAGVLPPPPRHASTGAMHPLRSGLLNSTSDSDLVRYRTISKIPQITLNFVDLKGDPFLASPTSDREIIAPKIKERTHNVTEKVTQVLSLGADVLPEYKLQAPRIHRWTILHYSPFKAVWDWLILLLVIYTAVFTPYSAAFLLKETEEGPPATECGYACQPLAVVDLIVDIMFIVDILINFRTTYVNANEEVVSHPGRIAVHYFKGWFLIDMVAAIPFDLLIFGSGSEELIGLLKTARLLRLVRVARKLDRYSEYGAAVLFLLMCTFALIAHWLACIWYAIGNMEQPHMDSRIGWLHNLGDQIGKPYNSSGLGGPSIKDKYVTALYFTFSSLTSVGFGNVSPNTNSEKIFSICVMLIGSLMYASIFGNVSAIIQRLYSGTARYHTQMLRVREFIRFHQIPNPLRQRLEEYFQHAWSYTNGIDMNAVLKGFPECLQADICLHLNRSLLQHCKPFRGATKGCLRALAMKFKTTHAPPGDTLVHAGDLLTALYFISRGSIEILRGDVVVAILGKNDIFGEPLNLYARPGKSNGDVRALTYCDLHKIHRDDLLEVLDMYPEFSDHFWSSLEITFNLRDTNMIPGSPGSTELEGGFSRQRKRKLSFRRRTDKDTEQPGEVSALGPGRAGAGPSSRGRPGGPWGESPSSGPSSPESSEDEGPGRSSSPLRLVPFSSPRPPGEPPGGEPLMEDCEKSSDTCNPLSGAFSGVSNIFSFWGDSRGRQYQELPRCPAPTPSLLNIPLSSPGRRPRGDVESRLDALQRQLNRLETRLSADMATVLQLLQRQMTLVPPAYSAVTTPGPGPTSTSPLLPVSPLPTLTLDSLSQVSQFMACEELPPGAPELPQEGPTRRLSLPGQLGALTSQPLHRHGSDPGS

Compound | hERG current change (%, negative = inhibition) at 10uM [%]
O=C(NN1C(=O)/C(=C\c2cccnc2)SC1=S)c1ccco1 | 0.819
Cc1ccc2c(c1Cl)NC(C(=O)O)C1CC(Sc3ccccc3[N+](=O)[O-])C(Cl)C21 (centres unmarked) | -1.25
CC(C(=O)N1CCc2ccccc21)n1cccc1 (centres unmarked) | 8.51
COc1ccc(C(=O)NCCNc2ccc([N+](=O)[O-])cc2)cc1OC | -1.31
c1ccc2c(OCCCCN3CCCC3)cccc2c1 | -27.1
COc1ccccc1CNC(=O)C(C)Sc1ccc(C)cc1 (centres unmarked) | 5.38
COc1ccc(C(=O)NCC2(c3ccccc3)CCOCC2)cc1 | 3.93
CCN(CC)CCCCNc1ncc2cc(-c3cc(OC)cc(OC)c3)c(NC(=O)NC(C)(C)C)nc2n1 | -38.2
CC1CN(C(=O)CCC(=O)NCc2ccccn2)c2ccccc2O1 (centres unmarked) | 18.2
CC1(C)CNC(=O)CC(C)(C)N1 | 4.53
Oc1[nH]c2ccccc2c1N=Nc1nc(Nc2ccccc2)nc(N2CCOCC2)n1 | -0.289
CC(OC(=O)c1nn(C(C)C)c(=O)c2ccccc12)C(=O)Nc1ncc(Cl)cc1Cl (centres unmarked) | 5.08
COc1ccccc1OCCn1cc(C(=O)C(C)C)c2ccccc21 | 10.7
CC(C)c1ccc(N2CC(C)(C)C2=O)cc1 | 5.81
O=C(CCc1ccccc1)NNC(=O)c1ccco1 | 5.99
COc1ccc(CNC(=O)c2ccccc2C(=O)O)cc1 | -0.722
CCN(C(=O)CN1C(=O)c2ccccc2S1(=O)=O)C1CCCCC1 | -14.8
COc1ccc(OCC(=O)NNC(=S)NC(=O)c2ccc([N+](=O)[O-])cc2)cc1 | 15.6
O=C(CSc1nc2c(cnn2-c2ccccc2)c(=O)[nH]1)NC1CCS(=O)(=O)C1 (centres unmarked) | 14
NC(=O)c1cc(C(=O)Cc2ccc(Cl)cc2)c[nH]1 | 12.5
CCOC(=O)CC(NC(=O)c1cccs1)c1ccc(C)cc1 (centres unmarked) | 13.2
O=S(=O)(c1ccccc1)c1cnc(-c2ccccc2)nc1N1CCCCC1 | 27.1

Compound | hERG current change (%, negative = inhibition) at 10uM [%]
O=C(NCCNC(=O)c1ccccn1)c1ccc(F)cc1 | 6.57
NC(=O)C1CCN(CC(=O)Nc2cc(S(=O)(=O)N3CCOCC3)ccc2N2CCCC2)CC1 | -3.61
Cc1ccc(-c2nn3cnnc3c3ccccc23)cc1 | -35.7
COc1cccc(C2C(=O)c3ccccc3C2=O)c1 | 16.9
CC(C)(C)c1cc(C(=S)N2CCCC2)cc(C(C)(C)C)c1O | -1.05
COc1ccc(C(=O)NNC(=O)CSc2nnnn2C)cc1 | 21.3
O=C(COC(=O)c1ccc(O)cc1)Nc1ccccc1-c1ccccc1 | 1.92
O=C(Cn1cc(C(=O)c2cccs2)c2ccccc21)NC1CCCCC1 | -7.98
Cn1cnnc1SCC(=O)NC1CCCCCC1 | 18.5
O=C(NCc1ccc(F)cc1)C1CCCN1C(=O)Nc1ccc(Cl)cc1 (centres unmarked) | -4
CC(C)c1nc(SCC(=O)Nc2cccc(C(F)(F)F)c2)c2c(=O)n(C)c(=O)n(C)c2n1 | -5.43
CCCCCCn1c(N2CCC(C(N)=O)CC2)nc2c1c(=O)n(C)c(=O)n2C | -56.4
Cc1ccc2nc(/C(C#N)=C/c3ccccc3C(=O)O)[nH]c2c1 | 8.51
Cc1cnc(C)c(N2CCN(Cc3nc(-c4cccc(F)c4F)oc3C)CC2)n1 | -41.4
COc1ccccc1C(=O)O/N=C(\c1ccccc1)c1ccncc1 | -14.4
CCc1ccccc1NC(=S)NCCSc1ccc(Cl)cc1 | 5.35
CC(=O)Nc1cccc(-c2csc(Nc3ccc(Cl)cn3)n2)c1 | 28.7
COC(=O)C(Cc1ccccc1)NC(=O)C(CC(C)C)NC(=O)OC(C)(C)C (stereo not drawn) (Boc-Leu-Phe-OMe; configuration not given here) | 10.7
COc1ccc(C2=NN(C(=O)CCCC(=O)O)C(c3cccs3)C2)cc1OC (centres unmarked) | 17.1
COc1c2ccoc2nc2c(OC)c(OCC(O)C(C)(C)O)ccc12 (centres unmarked) | 22.5
O=C(Nc1ccccc1N1CCCCC1)c1cccs1 | -42.4
CC(=O)N1c2ccc(S(=O)(=O)NCC3CCC(C(=O)N(C)Cc4ccccc4)CC3)cc2CC1C (centres unmarked) | 12.9

Reference: article PMC4336329 (PLoS ONE, 2015)
